Experimental data taken from PubChem BioAssay AID1159614 (National Center for Advancing Translational Sciences (NCATS), 2016).
Screen size: about 45,000 compounds; about 65 (0.1%) were called active. Calls come from the whole dose curve; as a rule, active = well fitted activation curve with a large enough effect; inconclusive = small, poorly fitted or top-dose-only effect; inactive = no such curve, though single readings can be large or run the other way. The list shows a part of the results.

Molecular target: Galactocerebrosidase (Homo sapiens) (UniProt P54803)
Assay: A Novel Cell-Based Assay to Identify Small Molecules for B -Galactocerebrosidase; note: 0% is about no effect; nearly all actives have a fitted effect of over 65% in size
Conditions: 145M-Twi-hGALC-G270D cells, HMU-beta-Gal fluorescence, 48 h; series mostly up to 57.5 µM; activation: at the top concentration
Outline: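 qHTS, 1536-well; 145M-Twi-hGALC-G270D cells (WT line also made) in DMEM/F12 + 10% FBS; compound incubation on live cells; HMU-β-gal 0.1 mM final, pH 5.2, NaTC; carbonate stop; fluorescence increase = enhanced residual activity.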

Chain of UniProt P54803 (P54803 whole entry, looked up): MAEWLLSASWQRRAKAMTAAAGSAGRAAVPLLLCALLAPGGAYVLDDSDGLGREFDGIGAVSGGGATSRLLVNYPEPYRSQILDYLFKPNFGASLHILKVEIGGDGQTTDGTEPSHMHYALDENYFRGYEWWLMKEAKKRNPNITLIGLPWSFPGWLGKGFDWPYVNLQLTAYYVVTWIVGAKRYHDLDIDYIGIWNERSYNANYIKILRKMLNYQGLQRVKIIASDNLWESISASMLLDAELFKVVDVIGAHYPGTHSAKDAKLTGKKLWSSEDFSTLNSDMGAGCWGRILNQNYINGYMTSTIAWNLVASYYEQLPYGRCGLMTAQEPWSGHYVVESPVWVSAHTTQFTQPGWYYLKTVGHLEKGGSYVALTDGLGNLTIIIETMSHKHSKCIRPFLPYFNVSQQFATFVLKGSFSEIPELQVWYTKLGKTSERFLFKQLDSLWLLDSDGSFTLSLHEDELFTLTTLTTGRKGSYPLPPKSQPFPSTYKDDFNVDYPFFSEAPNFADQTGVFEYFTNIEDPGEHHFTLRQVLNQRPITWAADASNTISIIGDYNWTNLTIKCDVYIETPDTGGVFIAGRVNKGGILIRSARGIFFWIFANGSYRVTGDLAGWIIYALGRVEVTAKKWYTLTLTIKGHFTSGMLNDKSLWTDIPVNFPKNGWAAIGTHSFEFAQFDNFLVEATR

Structure (SMILES) | activation
CCOc1ccccc1N(CC)C(=O)Cn1ncc2c1-c1ccccc1OC2 | inactive: -33.1%
CCOc1ccc(NC(=O)CSc2nc(-c3ccccc3)c3cc(OCC)ccc3n2)cc1 | inactive: -0.217%
COc1ccc(CNC(=O)c2cnc3sc4cc(OC)ccc4n3c2=O)cc1 | inactive: -12.3%
O=C(NCc1ccccc1Cl)C(=O)NCC(c1ccc2c(c1)OCO2)N1CCOCC1 (configuration not stated) | inactive: -10.1%
COc1ccc(CNC(=O)CCS(=O)(=O)c2cc3c4c(c2)CCN4C(=O)CC3)cc1OC | inactive: -11.3%
CCCSc1ncc(Cl)c(C(=O)NCc2ccc(C)cc2)n1 | inactive: -8.55%
Cc1c(C(=O)N2CCCC2)oc2c1-c1nn(CC(=O)NCc3ccccc3F)cc1CC2 | inactive: 3.48%
COc1ccc(C2C(C(=O)Nc3cccnc3)=C(C)Nc3nc(-c4ccc(OC)c(OC)c4)nn32)cc1 (configuration not stated) | inactive: -7.54%
CCOC(=O)c1c(C)[nH]c(CCC(=O)NCc2cc(Br)ccc2OC)c1C | inactive: -33.6%
Cc1ccc(S(=O)(=O)c2nnn3c2nc(N(C)Cc2ccccc2)c2cc(Cl)ccc23)cc1C | inactive: 1.25%
Cc1sc(NC(=O)C2c3ccccc3Oc3ccccc32)c(C(=O)OC(C)C)c1C | inactive: -6.34%
COc1ccc(-c2nc(CSCC(=O)NCCc3ccc(OC)c(OC)c3)c(C)o2)cc1 | inactive: -4.37%
CC(C)NC(=O)C1=CC(c2ccc3c(c2)OCO3)=NS(=O)(=O)N1C | inactive: -17.2%
COc1ccccc1CNC(=O)c1cc2cccc3c2n1CCS3 | inactive: -13.7%
CCN(CC)C(=O)c1sc2c(c1C)c(=O)n(-c1ccccc1)c(=O)n2CC(=O)N(CC)c1cccc(C)c1 | inactive: -8.46%
COc1cc(C(=O)Nc2cc(C)c(O)c(-c3nc4cc(Cl)ccc4o3)c2)cc(OC)c1OC | inactive: -9.83%
CC(CCc1ccc2c(c1)OCO2)NN (configuration not stated) | inactive: -9.51%
Cc1ccc(CNC(=O)c2ccc3c(c2)NC(=O)C(CS(=O)(=O)Cc2cccc(C)c2)N3)cc1 (configuration not stated) | inactive: -20.7%
COc1cc(NC(=O)CCS(=O)(=O)c2ccc(Br)cc2)cc(OC)c1 | inactive: -14.2%
CCCCN(C)C(=O)CN1C(=O)c2cccnc2Oc2ccc(Cl)cc21 | inactive: -9.63%
CN(C(=O)CSc1nncn2c1cc1occc12)c1ccccc1 | inactive: -21.1%

Structure (SMILES) | activation
CCCOc1ccc(C(=O)N(Cc2ccc(Cl)cc2)Cc2ccco2)cc1 | inactive: -2.49%
Cc1cn2c(=O)cc(COC(=O)COc3ccc(C)c(C)c3)nc2s1 | inactive: -23.5%
Cc1c(C(=O)N2CCC(C(=O)Nc3ccc(F)c(Cl)c3)CC2)sc2nc[nH]c(=O)c12 | inactive: 26.2%
Cc1ccc(NC(=O)Cn2c(=O)ccc3cc(S(=O)(=O)N4CCCC4)ccc32)cc1C | inactive: -4.5%
O=C(NCc1cccs1)c1ccc2c(c1)sc1nc(-c3ccccc3)cn12 | inactive: -9.8%
CC(C)c1ccc(-c2noc(SCC(=O)N3CCN(c4ccccc4F)CC3)n2)cc1 | inactive: -14.7%
COc1ccc(Cn2ccn(CC(=O)Nc3cc(C)ccc3C)c(=O)c2=O)cc1 | inactive: -12.5%
COc1ccc2c(c1)c(=O)c(C(=O)c1ccc(F)cc1)cn2CC(=O)Nc1ccc2c(c1)OCCO2 | inactive: -8.27%
COc1ccc(-c2cn3cccnc3n2)cc1NC(=O)c1ccccc1C(F)(F)F | inactive: -7.77%
Cc1cc2nn(-c3ccc(F)cc3)nc2cc1NC(=O)c1ccc(C(C)(C)C)cc1 | inactive: 0.528%
COc1cc(CN(C(=O)c2ccccc2)c2ccccn2)cc(OC)c1OC | inactive: -10.2%
COc1cccc(CNC(=O)Nc2cn(CC(C)C)c(=O)c3ccccc23)c1 | inactive: -20.4%
COc1ccc(-c2oc3ncn4nc(-c5ccccc5OC)nc4c3c2-c2ccc(OC)cc2)cc1 | inactive: -11.5%
COc1cc(OC)cc(-n2c(=O)c3sccc3n(Cc3cc(=O)n4c(C)cccc4n3)c2=O)c1 | inactive: -13.4%
Cc1ccc2c(CC(=O)Nc3nnc(C(C)C)s3)coc2c1C | inactive: 3.34%
OCCN1CCN(c2ncnc3c2cnn3-c2cccc(Cl)c2)CC1 | inactive: -23.9%
Cc1nnc2c3ccccc3nc(Nc3ccc(F)cc3Cl)n12 | inactive: -14.7%
CCOC(=O)c1cc(-c2ccc(F)cc2)n(CCC(=O)Nc2nc3cc(C)c(C)cc3s2)c1C | inactive: -12.5%
CCOc1ccc(-n2c(-c3ccc(Br)cc3)cc3c2CC(C)(C)CC3=O)cc1 | inactive: -19.9%
COc1ccc(OCc2ccc(-c3nc(C#N)c(NCc4ccc(F)cc4)o3)o2)cc1 | inactive: -14.4%
Cc1nc(N2CCCC2)ncc1C(=O)Nc1ccc(OC(F)(F)F)cc1 | inactive: -15%

Structure (SMILES) | activation
COc1ccc(CCNc2ncnc3c2cnn3-c2ccc(F)cc2)cc1 | inactive: -20.5%
Cc1ccc(Cl)cc1NC(=O)Cn1nnc2sc3c(c2c1=O)CCC(C(C)(C)C)C3 (configuration not stated) | inactive: -7.9%
Cc1cccc(N(C)S(=O)(=O)c2nnc(NC(=O)C(C)(C)C)s2)c1 | inactive: -1.31%
COc1ccc(N(Cc2cc3cc(OC)ccc3[nH]c2=O)C(=O)c2cccc(Cl)c2)cc1 | inactive: -3.58%
COc1ccc(OC)c(CNC(=O)c2cc3c(=O)oc4ccc(C)cc4c3s2)c1 | inactive: -5.64%
O=C(c1ccc2c(c1)N(Cc1ccccc1F)C(=O)c1ccccc1S2=O)N1CCC(Cc2ccccc2)CC1 (configuration not stated) | inactive: 0.0237%
Brc1ccc(CN2CCc3nc(Nc4ccccc4)ncc3C2)s1 | inactive: 5.22%
Cn1c(SCC(=O)N2CCOCC2)ncc(C(=O)Nc2ccc(F)cc2)c1=O | inactive: -10.3%
CCc1ccc(C2c3c(-c4cc(C)ccc4O)n[nH]c3C(=O)N2CCO)cc1 (configuration not stated) | inactive: -12.4%
CCc1ccc(NCc2cc3cc4c(cc3n(CC(=O)Nc3ccc(OC)cc3)c2=O)OCO4)cc1 | inactive: -10.8%
COc1ccc(NC(=O)CCCS(=O)(=O)c2nc(-c3ccccc3OC)cc(C(F)(F)F)n2)c(OC)c1 | inactive: -0.842%
CCCSc1nc2sc3c(c2c(=O)n1-c1ccc(C)cc1)CCCC3 | inactive: -6.78%
Cn1c(=O)c2c(ncn2CCO)n(C)c1=O | inactive: -0.14%
CCOC(=O)c1c(S(=O)(=O)NCC(=O)Nc2cccc(SC)c2)c(C)n(C)c1C | inactive: -6.08%
Cc1ccc(CNC(=O)C2CCCN(c3nc4ccccc4n4cccc34)C2)cc1 (configuration not stated) | inactive: -31%
CC1CCN(CCCNC(=O)CN2C(=O)CSc3ccc(S(=O)(=O)N4CCCCC4)cc32)CC1 | inactive: -11%
COc1ccc(C(C)NC(=O)CN(c2cc(OC)ccc2OC)S(=O)(=O)c2ccccc2)cc1 (configuration not stated) | inactive: -9.98%
COc1cccc(-n2ccnc2SCC(=O)Nc2cccc3ccccc23)c1 | inactive: -13.5%
O=C(NCc1ccccc1Cl)c1ccc2c(c1)ncn2-c1cccc(F)c1 | inactive: -9.99%
COc1ccc(-n2c(CC3C(=O)Nc4ccc(C)cc43)nc3ccccc3c2=O)cc1 (configuration not stated) | inactive: -17.5%
